# From article PMC4336329 (PLoS ONE, 2015)
# Hit rate of the full screen: of about 310,000 compounds, about 14,000 (4.5%) showed an effect of 50% or more. Effects have a minus sign here. The list shows a part of the results.
# Target: human ether-à-go-go-related gene (hERG) potassium channel (human, UniProt Q12809)
# Experiment: primary screen, population patch clamp on CHO cells stably expressing hERG
# 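Further: peak tail current of the secondary pulse compared with the same well before compound.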
# human ether-à-go-go-related gene (hERG) potassium channel, sequence (Q12809 whole entry, looked up): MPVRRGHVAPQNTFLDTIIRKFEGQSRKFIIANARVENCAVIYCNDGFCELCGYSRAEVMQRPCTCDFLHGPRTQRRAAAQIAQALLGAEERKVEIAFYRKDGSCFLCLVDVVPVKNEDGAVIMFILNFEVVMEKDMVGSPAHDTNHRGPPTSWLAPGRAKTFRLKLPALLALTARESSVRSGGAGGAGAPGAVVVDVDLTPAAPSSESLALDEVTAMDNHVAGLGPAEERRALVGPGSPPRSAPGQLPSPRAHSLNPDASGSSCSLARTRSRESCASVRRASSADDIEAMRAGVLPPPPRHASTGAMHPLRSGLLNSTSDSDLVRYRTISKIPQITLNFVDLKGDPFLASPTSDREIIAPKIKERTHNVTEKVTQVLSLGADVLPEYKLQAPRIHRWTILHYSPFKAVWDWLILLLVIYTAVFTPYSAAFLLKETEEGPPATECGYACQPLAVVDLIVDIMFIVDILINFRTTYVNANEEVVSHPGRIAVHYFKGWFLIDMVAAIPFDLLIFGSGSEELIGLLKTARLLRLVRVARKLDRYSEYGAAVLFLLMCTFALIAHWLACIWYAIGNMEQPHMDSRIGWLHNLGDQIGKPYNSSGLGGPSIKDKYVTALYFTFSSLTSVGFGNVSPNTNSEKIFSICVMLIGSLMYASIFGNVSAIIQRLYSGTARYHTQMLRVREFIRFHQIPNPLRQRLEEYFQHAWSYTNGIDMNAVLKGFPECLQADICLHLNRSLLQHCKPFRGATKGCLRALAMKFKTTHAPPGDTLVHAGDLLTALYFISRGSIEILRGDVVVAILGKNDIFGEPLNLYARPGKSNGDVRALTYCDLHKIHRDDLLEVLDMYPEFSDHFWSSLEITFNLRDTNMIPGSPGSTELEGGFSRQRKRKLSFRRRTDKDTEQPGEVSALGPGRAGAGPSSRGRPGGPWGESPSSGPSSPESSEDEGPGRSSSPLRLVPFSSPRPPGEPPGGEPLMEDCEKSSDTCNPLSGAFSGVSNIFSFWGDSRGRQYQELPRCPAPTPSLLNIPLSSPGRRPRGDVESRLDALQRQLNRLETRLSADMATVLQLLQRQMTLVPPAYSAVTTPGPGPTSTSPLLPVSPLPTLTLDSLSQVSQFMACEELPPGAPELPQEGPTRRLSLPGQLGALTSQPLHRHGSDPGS
row,SMILES,"hERG current change (%, negative = inhibition) at 10uM [%]"
1,S=C(Nc1ccc(Oc2ccccc2)cc1)NC1CCCCCC1,25.4
2,Cc1oc(-c2cccs2)nc1CN1CCN(CCC(C)C)C(CCO)C1 (centres unmarked),-27.6
3,COc1ccc(C2=[N+]([O-])C(C)(C)N(O)C2(C)C)cc1,7.47
4,Cc1ccc(N2CCN(/N=C/C3=C(N4CCOCC4)C(=C\c4ccccc4)/CC3)CC2)cc1,26.2
5,Cc1ccc(C)c(C(=O)COC(=O)c2cc([N+](=O)[O-])ccc2NCCO)c1,-9.5
6,O=C(O)Cn1nc(-c2ccccc2)c2ccccc2c1=O,21.8
7,CC(C)n1cnc2cc(NCc3ccccc3O)ccc21,3.94
8,O=C(N/N=C/c1c[nH]c2ccccc12)c1ccccc1Cl,1.24
9,COc1ccccc1CNc1ccc2c(c1)CCC2,13.8
10,Cc1ccc(NC(=O)NCc2ccccn2)cc1Cl,17.6
11,Cn1c(N)c(C(=O)CSc2nc3ccccc3n2-c2ccccc2)c(=O)n(C)c1=O,4.96
12,COc1cc(C(=O)Nc2nccs2)c(Br)c(OC)c1OC,13.9
13,CCOC(=O)NC1(C(F)(F)F)NC(=O)N(c2ccc(F)cc2)C1=O (centres unmarked),0.469
14,Cc1ccc(S(=O)(=O)NCC(=O)OCC(=O)N(Cc2ccccc2)C(C)(C)C)cc1,1.33
15,Cc1cc(C)c(C(N)=O)c(Nc2cccc(Cl)c2)n1,6.36
16,CCCn1c(SCc2cc(=O)[nH]c3ccccc23)nc2c1c(=O)n(C)c(=O)n2C,-7.61
17,O=C(NCc1cccnc1)C1CC(c2ccc(F)cc2)=NO1 (centres unmarked),-2.23
18,N#Cc1ccccc1NC(=O)Nc1cccc(Cl)c1,4.4
19,CN(C(=O)CSc1nnc(-c2cccc(F)c2)n1N)C1CCS(=O)(=O)C1 (centres unmarked),4.4
20,COc1ccc(NC(=O)c2cc(S(=O)(=O)N3CCOCC3)cs2)cc1,8.55
21,Clc1ccc(OCCCn2ccnc2)c(Br)c1.O=C(O)C(=O)O,-18.6
22,CCOC(=O)C1C(=O)C=C(c2ccc(C)cc2)CC1c1ccccc1 (centres unmarked),28.2
23,Cn1c(SCc2c(F)cccc2Cl)nnc1-c1cnccn1,-0.137

row,SMILES,"hERG current change (%, negative = inhibition) at 10uM [%]"
1,O=C(Nc1nnc(C2CC2)o1)c1ccc(S(=O)(=O)N2CCc3ccccc3C2)cc1,-27
2,Cc1ccc(Nc2ccc(C(=O)NCCc3ccccc3)cn2)cc1,8.75
3,Oc1c(/C=N/c2ncn[nH]2)ccc2ccccc12,-1.58
4,Cc1c(C(=O)C(=O)NCc2ccco2)c2ccccc2n1C,1.7
5,N#Cc1cc(S(=O)(=O)c2ccccc2)c(N)[nH]c1=O,16.1
6,Cc1csc(NC(=O)CSc2nnc(-c3ccoc3C)o2)n1,4.99
7,O=C(Nc1cc(N2CCOCC2)ncn1)NC1(C(F)(F)F)Oc2ccccc2O1,8.86
8,Cc1cc(S(=O)(=O)N2CCOCC2)ccc1OCC(=O)Nc1cccc(F)c1,-18.6
9,COc1cccc(N2CCN(C(=O)c3cccn4c(=O)c5c(C)c(C)sc5nc34)CC2)c1,-0.899
10,CSc1ccc(/C=N/Nc2nc(C)cc(C)n2)cc1,-14.4
11,CCOC(=O)C1=C(CNCc2ccccc2Cl)NC(=O)NC1c1ccc2c(c1)OCO2 (centres unmarked),2.11
12,Cn1c(C(O)c2ccccc2)nc(Cl)c1Cl (centres unmarked),7.1
13,Fc1ccc(OCCn2cnc(Cl)c2Cl)cc1,1.08
14,O=C(CSCc1ccccc1Br)Nc1ccccc1,7.96
15,O=C1CC(Sc2nnc(-c3ccccc3)o2)C(=O)N1c1ccccc1 (centres unmarked),3.12
16,O=C(Nc1ccc(C(F)(F)F)cc1)c1ccc(NC(=O)C2CCCO2)cc1 (centres unmarked),16.6
17,Br.N=c1n(CCN2CCOCC2)c2ccccc2n1CC(=O)c1cccc([N+](=O)[O-])c1,-42.2
18,Cc1ccc(NCN2C(=O)C3CC=CCC3C2=O)cc1 (centres unmarked),2.67
19,Cc1oc(-c2ccccc2)nc1CS(=O)CC(=O)O (centres unmarked),10.2
20,CCC(C)N1C(=O)/C(=C\c2cc3c4c(c2)CCCN4CCC3)C(=O)NC1=S (centres unmarked),15.3
21,Cc1ccccc1N(CC(=O)NCCSc1ccccn1)S(=O)(=O)c1ccccc1,-3.92
22,CN(c1ccc(C(=O)NCc2ccccc2)cc1)S(C)(=O)=O,4.08
23,Cc1ccc(-c2nnc(SCC(=O)CC(=O)Nc3ccccc3)n2C)cc1,-13.8

row,SMILES,"hERG current change (%, negative = inhibition) at 10uM [%]"
1,CS(=O)(=O)N1CCC(Oc2ccccc2C(=O)NC2CCCCCC2)CC1,0.371
2,O=C(/C=C/c1cc([N+](=O)[O-])ccc1OC(F)F)NCc1ccc(Cl)cc1,4.74
3,O=C(CCN1C(=O)/C(=C/c2ccccc2)SC1=S)NCCc1ccc(O)cc1,8.84
4,CCOc1ccc(S(=O)(=O)NCCSc2ccccc2)cc1,-33.4
5,COc1cc(C2NCC(c3ccc(Cl)cc3Cl)c3c2[nH]c2ccccc32)cc(OC)c1OC.Cl (centres unmarked),7.58
6,CCCC(=O)Nc1ccc2c(c1)nc(CCN1CCN(c3ccccn3)CC1)n2C,-25.5
7,O=C(COc1ccccc1)c1cn(CC(=O)N2CCOCC2)c2ccccc12,-2.63
8,COCCNC(=O)c1cc2c(=O)n3cccc(C)c3nc2n(Cc2ccncc2)c1=N,-70
9,O=C(CSC(=S)N1CCCC1)NCCc1ccccc1,-14
10,CCC(CO)Nc1ccc(-c2n[nH]c(=O)c3ccccc23)cc1[N+](=O)[O-] (centres unmarked),7.43
11,NC(=O)c1c[nH]c2ccccc12,8.51
12,O=C(O)C1CC=CCC1C(=O)Nc1ccccc1C(=O)N1CCN(c2ccccc2)CC1 (centres unmarked),0.797
13,CN(C)C(=O)CS(=O)(=O)c1ccc(Cl)cc1,1.28
14,CCOC(=O)c1ccc2[nH]c3c(c2c1)CCCC3C(=O)OCC (centres unmarked),-16.3
15,Nc1sc2c(c1C(=O)NC1CCS(=O)(=O)C1)CCC2 (centres unmarked),10.9
16,O=c1[nH]cnc2c1nc(SCc1ccccc1)n2C1OC(CO)C(O)C1O (centres unmarked),-2.32
17,CC(C)COc1ccc(C(=O)Nc2ccc(NC(=O)c3ccco3)c(Cl)c2)cc1,11.6
18,CCN(C(=O)c1cc2c(s1)-c1ccccc1OC2)c1cc(OC)ccc1OC,1.43
19,CC1SC(=NC(=O)c2ccncc2)NC1=O (centres unmarked),23.6
20,O=C(Nc1ccc(C(=O)O)cc1)Nc1ccc(F)cc1F,-7.2
21,CCOC(=O)Cn1c(=NC(=O)C2COc3ccccc3O2)sc2cc(S(N)(=O)=O)ccc21 (centres unmarked),8.95
22,COc1ccc(-c2ccc3sc4ccccc4c(=O)c3c2)cn1,-17.2
23,O/N=C/c1cn(-c2ccccc2)nn1,2.04

row,SMILES,"hERG current change (%, negative = inhibition) at 10uM [%]"
1,Cc1ccc(C(=O)Oc2ccc(/C=C3\C(=N)N4N=C(N5CCOCC5)SC4=NC3=O)cc2)cc1,27.9
2,CCCCc1nnc(NC(=O)CC(=O)Nc2ccccc2C(=O)O)s1,3.71
3,Cc1cc(C)c(C#N)c(SCC(=O)Nc2ccc(S(=O)(=O)Nc3onc(C)c3C)cc2)n1,4.6
4,C=C1CCN([C@@H](C)C(=O)OCc2cccc(C)c2)S(=O)(=O)c2ccccc21,0.747
5,CCOc1c(P(=S)(N(C)C)N(C)C)c(C)nn1-c1ccccc1,2.73
6,CCC(NS(=O)(=O)c1c(C)[nH]c(=O)[nH]c1=O)C12CC3CC(CC(C3)C1)C2 (centres unmarked),-5.89
7,CCCN(Cc1ccccc1)C(=S)Nc1ccc(F)cc1,13.2
8,CCOC(=O)c1sc(Nc2nc3c(OC)cccc3s2)nc1C,2.25
9,Cc1cc(C)c2nc(SCC(=O)Nc3cc(C)on3)c(C)cc2c1,20.5
10,N#CC(C(=O)c1ccc(S(=O)(=O)N2CCCCCC2)cc1)c1nc2ccccc2[nH]1 (centres unmarked),2.37
11,COc1ccc(N2C(=O)CSC23C(=O)N2CCCc4cccc3c42)cc1 (centres unmarked),0.569
12,Cc1cc(C)cc(NS(=O)(=O)c2ccc3[nH]cc(C(=O)N4CCc5ccccc54)c(=O)c3c2)c1,1.09
13,C=CCn1c(SCc2ccc(Cl)cc2)nc2c1c(=O)[nH]c(=O)n2C,-2.54
14,O=C(Nc1ccc2c(c1)OCO2)c1cnccn1,4.36
15,CC(C)(C)OC(=O)[C@H](Cc1ccccc1)NC(=O)c1nc[nH]c1C(=O)NCc1ccccc1,1.7
16,CCOC(=O)c1cnn(CCOC(=O)c2ccccc2)c1NC(=O)c1ccccc1,-5.33
17,O=C(NCCCNC(=O)c1ccco1)c1cccc(F)c1,7.01
18,COCC(C)n1c(SCc2nc3ccccc3c(=O)[nH]2)nc2ccccc2c1=O (centres unmarked),-13.4
19,COc1ccc(CNC(=O)c2c(C)cc(=O)oc2C)cc1OC,6.84
20,Cc1ccc(F)c(C2=CC(=O)C[C@H](c3ccc(F)cc3)C2)c1,-10.8
